# ± gives the standard deviation of the averaged measurements. Some of the results follow.
# System: PfAP2-LT AP2 domain (GST-tagged)
# Test: gcPBM binding intensity (ln(normalized median fluorescence intensity)); higher = stronger DNA binding
# In short: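 Binding intensity values are the highest Masliner-normalised natural-log median intensity among replicate spots of either probe orientation. The binding step lasted 1 h in 1× PBS with 1% milk, 0.2 mg/ml BSA, 0.5% salmon testes DNA and 0.03% Triton X-100, using GST-tagged P. falciparum DNA-binding domains expressed in E. coli on an Agilent 4 × 180k array of primer-extended double-stranded 36-bp intergenic genomic probes plus negative controls. Alexa488 anti-GST antibody and a 488 nm scan detected bound protein.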
row,Sequence,gcPBM binding intensity (ln)
1,TGACATAATGTGTGTAGTACATATATCGTTATTTGA [XGTACX_site5152],9.11 ± 0.37
2,ATAAAAATAAAATAAGGTACAGACGAAAAAATTGAA [XGTACX_site5097],9.02 ± 0.49
3,ATAATATTATGTGTGAATATATCTTTAAAAAGGATA [GTGCAC_negctrl_site15],8.97 ± 0.52
4,TATATATTTCATAATACACACGAAAAAAAAAAAAAA [CACACA_site8972],8.72 ± 0.45
5,CACAAAAATAGACACACACACATATAAATAAATATA [CACACA_site6598],9.7 ± 0.38
6,TATAAAATAAAAGTAAATATATATATATATATATAT [TGCATGCA_negctrl_site208],9.4 ± 0.35
7,TTCTAGAAAACTGATCGTACAAATAAATATAGACAC [XGTACX_site2808],8.78 ± 0.46
8,ATATATTATAATGATACACACAAGAAATAAAATTAC [CACACA_site3095],9.12 ± 0.35
9,AATGCATACACATATTGTACTAAGCCATACAACACA [XGTACX_site305],9.01 ± 0.33
10,AAAATAGGGATCACGTGTACATATAAAGTGACATAC [XGTACX_site8190],9.21 ± 0.51
11,AAAAATAAATTTATATATTACAAGAACAAATATAGT [XGTACX_negctrl_site567],8.71 ± 0.53
12,GAATAAATAAGATACGTACACACATATACAAAATAT [CACACA_site3660],9.34 ± 0.39
13,ATAATATAAACGTATACACACAAGAGAAGCATAAAG [CACACA_site2889],9.37 ± 0.35
14,AAAAGGAAAGGAAAGGGTACAATCCTATTATATTAT [XGTACX_site8652],8.71 ± 0.56
15,TTTTTTTAAAAAAAGGGTACATATATATATTTTTCT [XGTACX_site1066],8.43 ± 0.49
16,TATATATCTATAAACACACACCAAAATTTGTGCTTT [CACACA_site7448],9.12 ± 0.47
17,ATAAAATGAACAAACACACACACATATATTTATATA [CACACA_site7181],9.84 ± 0.16
18,AAATAAAAAGAAAAGAAAAAGAAAATAAAAAGAGAA [XGTACX_negctrl_site14],8.79 ± 0.67
19,ATATACTTTAAAGGTTAAGAAAGAAAAAAAAAAAAA [CACACA_negctrl_site956],8.31 ± 0.49
20,ATATATATATATTATATGCACACGTTAAAATTTCAT [CACACA_site709],9.09 ± 0.32
21,GTATTACATGAGGACACACACAAAAAAAATATATAT [CACACA_site769],9.57 ± 0.51
22,TAATTATTTTAAAAAGTGCATTAAAAGATATTAAAT [GTGCAC_site9694],8.31 ± 0.4

row,Sequence,gcPBM binding intensity (ln)
1,TTATTATAAAAATGTAGTACAATACTTTTTTTTTTT [XGTACX_site732],8.35 ± 0.44
2,ATATGTATCTCATCGTGTACATGTATATAATATATA [XGTACX_site4139],8.95 ± 0.35
3,ATATAGTAAAGTTATACACACATGAATTTTCCCATG [CACACA_site6923],9.04 ± 0.42
4,ATATATCAAAATAATTGTACAAATTTTATATAATTT [XGTACX_site7249],8.53 ± 0.47
5,TTAGAAAAATTATATATACACACTTATATTTATATA [CACACA_site2821],8.56 ± 0.5
6,TTAAAAAGATGTCACTGTACATAAAACATAAAATAT [XGTACX_site2886],8.94 ± 0.47
7,TTTCATGACAATGTTTGTACATAATAAAATATATTT [XGTACX_site7039],8.59 ± 0.42
8,TAAACAGACATATAAACACACATACATACATACATA [CACACA_site7215],9.41 ± 0.32
9,AAAAAAAAAAAAAAAACACACATAAAACTATAATAA [CACACA_site7758],8.85 ± 0.57
10,GAAGAGACTTAGAAAACACACATACATAAGATAATT [CACACA_site5333],9.08 ± 0.41
11,CTTATACATATATATAGTACATATATCATTTTTATG [XGTACX_site4462],8.89 ± 0.61
12,GTCATATATAATTGTTGTACATTTTTATAATTATGT [XGTACX_site8091],9.03 ± 0.47
13,AATTTTCTTAAAATTTGTACGTATATATTTAATATA [XGTACX_site3906],8.54 ± 0.36
14,AATATAAATGTGATTACACACAACACATTTAAATGT [CACACA_site1212],9.2 ± 0.34
15,AAAAAATTATATTATGCACACATCGTTATATATATA [CACACA_site1201],9.04 ± 0.4
16,TATATATACTATAACACACATACACCCAAAAAAAAA [CACACA_site536],9.3 ± 0.33
17,TGTTTTATTTAGAAGGTGCACATTAATATTAAATAA,8.54 ± 0.45
18,ATATGCATTTTTATACGTACATATTTCTTTTCGTTA [XGTACX_site1497],9 ± 0.4
19,CATATTTTTATGAGATGTACAATAAGAAATATGTAA [XGTACX_site2389],8.57 ± 0.42
20,ACAAAAGGGGAATACACACACATATATAAATAAATA [CACACA_site7111],9.59 ± 0.6
21,TTCATAAGAAGGAACTGTACATATTTTTCATTTTTT [XGTACX_site6770],8.51 ± 0.52
22,AACAGGTCATAATTTACACACTATATATCTTATTAT [CACACA_site6461],9.06 ± 0.43
